Data from the supplement of paper PMC4967469.
pIC50: −log10 of the molar value. A lower IC50 marks a more sensitive line; fits outside the tested doses are given as limits. AUC, from the same fit, is the share of area under the viability curve across the 256-fold dose range: 1 means no effect, lower means more sensitive. For some of these results: A top dose marked as inferred comes from the curve model; the source does not state it. For some of these results: Where an entry number is given, a second screen of the drug exists; the two often differ.

Experiments:
Assay in all cases: Viability of human cancer cell lines after 72 h of drug (GDSC screen)
[1] = compound: C/C(=C\c1csc(C)n1)[C@@H]1C[C@@H]2O[C@]2(C)CCC[C@H](C)[C@H](O)[C@@H](C)C(=O)C(C)(C)[C@@H](O)CC(=O)O1 [Epothilone B]; settings: top dose 0.032 µM; top dose inferred
Procedure: (§1)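 Human cancer cell lines in 384-well plates, medium with 10% serum, drug for 72 h over a 256-fold dose range (nine 2-fold or five 4-fold steps up to the top dose). Adherent lines were fixed and stained with the nucleic acid dye Syto60, suspension lines read with resazurin; signal relative to control wells, capped at 0 and 100%. One two-parameter sigmoid per drug and line, fitted in a mixed model over all curves with the slope shared within a line.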

[2] = compound: C[C@@H](N)c1ccc(C(=O)Nc2ccnc3[nH]ccc23)cc1 [Y-39983]; settings: top dose 20 µM; top dose inferred
Procedure: as §1

[3] = compound: CC(C)CC(=O)Nc1n[nH]c2c1CN(C(=O)C1CCN(C)CC1)C2(C)C [PHA-793887]; settings: top dose 10.24 µM
Procedure: as §1

[4] = compound: CCc1nc(N)nc(N)c1-c1ccc(Cl)cc1 [Pyrimethamine]; settings: top dose 20 µM; top dose inferred
Procedure: as §1

[5] = compound: CCCS(=O)(=O)Nc1ccc(F)c(C(=O)c2c[nH]c3ncc(Cl)cc23)c1F [PLX4720]; settings: top dose 10 µM
Procedure: as §1

[6] = compound: CN1CCN(CCOc2cc(OC3CCOCC3)c3c(Nc4c(Cl)ccc5c4OCO5)ncnc3c2)CC1 [AZD-0530]; settings: top dose 2 µM
Procedure: as §1

[7] = compound: NC(=O)Nc1sc(-c2ccc(F)cc2)cc1C(N)=O [TPCA-1]; settings: top dose 20 µM
Procedure: as §1

[8] = screen: GDSC drug entry 1371, top dose inferred

Cell Line	AUC [1]	pIC50 [1]	AUC [2]	pIC50 [2]	AUC [3]	pIC50 [3]	AUC [4]	pIC50 [4]	AUC [5, 8]	pIC50 [5, 8]	AUC [6]	pIC50 [6]	AUC [7]	pIC50 [7]	AUC ([5]; screen: GDSC drug entry 1036)	pIC50 ([5]; screen: GDSC drug entry 1036)
NCI-H1666 (lung adenocarcinoma, semi-adherent)	0.956	< 7.49	0.987	< 4.70	0.932	< 4.99	0.907	< 4.70	0.845	5.08	0.981	< 5.70	0.968	< 4.70		
NCI-H1770 (non-small cell lung carcinoma, suspension)	0.365	9.05	0.982	< 4.70	0.984	< 4.99	0.939	< 4.70	0.977	< 5.00	0.992	< 5.70	0.87	4.83	0.99	< 5.00
NCI-H1836 (small cell lung carcinoma, suspension)	0.893	< 7.49	0.984	< 4.70	0.676	5.68	0.952	< 4.70	0.91	< 5.00	0.975	< 5.70	0.979	< 4.70	0.988	< 5.00
NCI-H1838 (lung adenocarcinoma, adherent)	0.979	< 7.49	0.968	< 4.70	0.983	< 4.99	0.975	< 4.70	0.985	< 5.00	0.974	< 5.70	0.949	< 4.70	0.951	< 5.00
NCI-H1869 (lung squamous cell carcinoma, adherent)	0.907	< 7.49	0.944	< 4.70	0.832	5.11	0.979	< 4.70	0.974	< 5.00	0.895	< 5.70	0.84	4.78	0.82	5.17
NCI-H1876 (small cell lung carcinoma, adherent)	0.972	< 7.49	0.969	< 4.70	0.704	5.62	0.966	< 4.70	0.969	< 5.00	0.987	< 5.70	0.888	< 4.70	0.77	5.42
NCI-H1975 (lung adenocarcinoma, adherent)	0.458	8.82	0.849	4.73	0.767	5.36	0.869	< 4.70	0.927	< 5.00	0.871	< 5.70	0.822	4.85	0.975	< 5.00
NCI-H2141 (small cell lung carcinoma, suspension)	0.774	7.91	0.99	< 4.70	0.926	< 4.99	0.99	< 4.70	0.99	< 5.00	0.984	< 5.70	0.987	< 4.70	0.983	< 5.00
NCI-SNU-1 (stomach, suspension)	0.842	7.63	0.834	4.86	0.657	5.75	0.838	4.85	0.987	< 5.00	0.944	< 5.70	0.848	4.81	0.957	< 5.00
NCI-SNU-5 (stomach, suspension)	0.89	< 7.49	0.989	< 4.70	0.959	< 4.99	0.954	< 4.70	0.978	< 5.00	0.987	< 5.70	0.989	< 4.70	0.985	< 5.00
NCI-SNU-16 (stomach, suspension)	0.914	< 7.49	0.991	< 4.70	0.93	< 4.99	0.959	< 4.70	0.968	< 5.00	0.991	< 5.70	0.936	< 4.70	0.97	< 5.00
NKM-1 (acute myeloid leukaemia, suspension)	0.502	8.69	0.845	4.82	0.22	7.02	0.914	< 4.70	0.958	< 5.00	0.976	< 5.70	0.597	5.63	0.984	< 5.00
NMC-G1 (glioma, adherent)	0.464	8.81	0.977	< 4.70	0.73	5.47	0.959	< 4.70	0.837	5.05	0.896	< 5.70	0.833	4.76	0.877	< 5.00
NOMO-1 (acute myeloid leukaemia, suspension)	0.686	8.14	0.697	5.32	0.58	5.96	0.876	< 4.70	0.979	< 5.00	0.972	< 5.70	0.486	5.94	0.982	< 5.00
NOS-1 (osteosarcoma, adherent)	0.557	8.53	0.949	< 4.70	0.576	5.96	0.703	5.27			0.737	6.15	0.516	5.85	0.872	< 5.00
NTERA-2 cl.D1 (testis, adherent)	0.373	9.05	0.942	< 4.70	0.897	< 4.99	0.957	< 4.70	0.592	5.95	0.985	< 5.70	0.861	4.78		
NU-DUL-1 (B-cell lymphoma, suspension)	0.688	8.23	0.774	5.20	0.214	6.94	0.985	< 4.70	0.99	< 5.00	0.94	< 5.70	0.382	6.20	0.939	< 5.00

Cell Line	AUC [1]	pIC50 [1]	AUC [2]	pIC50 [2]	AUC [3]	pIC50 [3]	AUC [4]	pIC50 [4]	AUC [5, 8]	pIC50 [5, 8]	AUC [6]	pIC50 [6]	AUC [7]	pIC50 [7]	AUC ([5]; screen: GDSC drug entry 1036)	pIC50 ([5]; screen: GDSC drug entry 1036)
OCI-AML2 (acute myeloid leukaemia, suspension)	0.578	8.51	0.601	5.66	0.739	5.61	0.812	5.12	0.975	< 5.00	0.995	< 5.70	0.513	5.87	0.981	< 5.00
OCI-AML3 (acute myeloid leukaemia, suspension)	0.605	8.43	0.969	< 4.70	0.507	6.18	0.983	< 4.70	0.99	< 5.00	0.987	< 5.70	0.684	5.42	0.984	< 5.00
OCI-AML5 (acute myeloid leukaemia, suspension)	0.632	8.35	0.879	4.76	0.523	6.13	0.989	< 4.70	0.988	< 5.00	0.988	< 5.70	0.464	6.00	0.989	< 5.00
OCI-LY-19 (B-cell lymphoma, suspension)	0.415	8.92	0.89	4.70	0.455	6.31	0.965	< 4.70	0.938	< 5.00	0.984	< 5.70	0.318	6.39	0.95	< 5.00
OCI-M1 (acute myeloid leukaemia, suspension)	0.74	8.10	0.976	< 4.70	0.464	6.28	0.971	< 4.70	0.993	< 5.00	0.995	< 5.70	0.18	6.72	0.993	< 5.00
OMC-1 (cervix, adherent)	0.825	7.69	0.985	< 4.70	0.931	< 4.99	0.972	< 4.70	0.986	< 5.00	0.977	< 5.70	0.918	< 4.70	0.984	< 5.00
OPM-2 (myeloma, suspension)	0.853	7.74	0.895	4.79	0.725	5.62	0.908	4.73	0.993	< 5.00	0.993	< 5.70	0.699	5.40	0.979	< 5.00
OS-RC-2 (kidney, adherent)	0.457	8.84	0.925	< 4.70	0.922	< 4.99	0.566	5.69	0.952	< 5.00	0.821	5.71	0.877	< 4.70	0.96	< 5.00
P31-FUJ (acute myeloid leukaemia, suspension)	0.996	< 7.49	0.988	< 4.70	0.86	5.26	0.995	< 4.70	0.996	< 5.00	0.996	< 5.70	0.971	< 4.70	0.993	< 5.00
P32-ISH (Burkitt lymphoma, suspension)	0.428	8.88	0.704	5.40	0.572	6.02	0.992	< 4.70	0.978	< 5.00	0.987	< 5.70	0.621	5.61	0.963	< 5.00
PF-382 (T-cell lymphoblastic leukaemia, suspension)	0.743	8.05	0.861	4.86	0.566	6.03	0.866	4.85	0.99	< 5.00	0.931	< 5.70	0.667	5.47	0.99	< 5.00
PL-21 (acute myeloid leukaemia, suspension)	0.708	8.07	0.633	5.51	0.461	6.31	0.863	< 4.70	0.958	< 5.00	0.982	< 5.70	0.601	5.60		
PSN1 (pancreas, adherent)	0.171	9.60	0.844	4.95	0.279	6.77	0.649	5.52	0.984	< 5.00	0.977	< 5.70	0.812	5.06	0.946	< 5.00
QIMR-WIL (acute myeloid leukaemia, suspension)	0.427	8.90	0.826	4.93	0.349	6.61	0.777	5.11	0.966	< 5.00	0.952	< 5.70	0.378	6.23	0.935	< 5.00
REH (B-cell leukaemia, suspension)	0.487	8.74	0.878	4.72	0.262	6.86	0.943	< 4.70	0.963	< 5.00	0.974	< 5.70	0.578	5.69	0.962	< 5.00
RF-48 (stomach, adherent)	0.609	8.38	0.813	4.90	0.642	5.78	0.833	4.82	0.975	< 5.00	0.935	< 5.70	0.307	6.48	0.953	< 5.00
